The results in this text go back to article PMC4242493.

The other results are listed elsewhere or left out. The list includes weakly bound sequences.

The target in the test is MaxL homodimer (UniProt P61244). The test is described as follows: universal protein-binding microarray (PBM). Particulars: PBS-based mixture, 10 nM His-tagged protein dimer, 2% milk, 200 ng/uL BSA, 50 ng/uL salmon testes DNA, 0.02% TX-100; detection with Alexa 488 anti-His …; high values mean tight binding; most listed sequences are background and not binding sites; double strand, one strand shown.
Sequence of UniProt P61244 (P61244 whole entry): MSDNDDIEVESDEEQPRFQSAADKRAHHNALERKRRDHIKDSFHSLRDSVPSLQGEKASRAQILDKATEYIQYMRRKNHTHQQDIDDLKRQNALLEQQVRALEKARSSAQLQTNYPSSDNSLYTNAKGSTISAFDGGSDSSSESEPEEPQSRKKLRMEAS
Take AGACGAGG: the binding signal (normalized occupancy) amounted to 0.0703.

Regarding TATTAGAA, the binding signal (normalized occupancy) came to 0.079. Turning to GGCTAAAC, the binding signal (normalized occupancy) turned out to be 0.0727. Consider ACCTGCCA, for which the binding signal (normalized occupancy) turned out to be 0.0764.

As to ACCCGCAT, the binding signal (normalized occupancy) is 0.0833. As for ACCAAACT, the binding signal (normalized occupancy) amounted to 0.0718. For the sequence CGGCAAAA, the binding signal (normalized occupancy) turned out to be 0.0703. The value for TGAGTGCA was 0.0772; that for AAGGGGCA was 0.0735. On to AAAACAGA, for which the binding signal (normalized occupancy) turned out to be 0.0783. With AGGGTGCG, the binding signal (normalized occupancy) amounted to 0.079. The value for TACTGTAA was 0.0705; that for AAGTCTGC was 0.0709. Take GCAAAGGC: the binding signal (normalized occupancy) amounted to 0.0715. Consider TCGGCCGA, for which the binding signal (normalized occupancy) stood at 0.0637. Turning to CAGCTTCG, the binding signal (normalized occupancy) is 0.0662. As for GAAGGAAA, the binding signal (normalized occupancy) worked out at 0.0768. As for GTCAGGCA, the binding signal (normalized occupancy) was 0.0719. Regarding CGTTACCA, the binding signal (normalized occupancy) worked out at 0.0889. With TCTACCAA the figure was 0.0675; with ACTCAGCT, 0.0711; with CCCGGCTA, 0.0649. With ATTGCAGG the figure was 0.0733; with CCTGCGAA, 0.0754. For the sequence ATAACGAG, the binding signal (normalized occupancy) is 0.0783. Regarding CGTCCAGA, the binding signal (normalized occupancy) stood at 0.0743. Consider CTCTAATC, for which the binding signal (normalized occupancy) was 0.073.

As for CTCCCCAA, the binding signal (normalized occupancy) came out at 0.0813.

As for CCTCCCTC, the binding signal (normalized occupancy) is 0.0739. CGTCTTCC: the binding signal (normalized occupancy) came to 0.0739.

On to ATATTTGA, for which the binding signal (normalized occupancy) was found to be 0.0793. The value for AGTCTCTC was 0.0744.

Turning to ATCACACC, the binding signal (normalized occupancy) is 0.0866. With GGTATAGA, the binding signal (normalized occupancy) came out at 0.0818. With AGCAAATC the figure was 0.0719.

Turning to AGACACCG, the binding signal (normalized occupancy) came out at 0.076. With AGTCAGAC, the binding signal (normalized occupancy) was 0.0684.

As for ACCCCGAA, the binding signal (normalized occupancy) was found to be 0.0791. In the case of ATCTATGC, the binding signal (normalized occupancy) came out at 0.0811. With GTACCGGA the figure was 0.0709; with ACCTTGAT, 0.0788; with TCGTAGAA, 0.0759. Consider AGCGATGA, for which the binding signal (normalized occupancy) is 0.0739. As to AGTGTAGG, the binding signal (normalized occupancy) worked out at 0.0737.

With AACGCGGT, the binding signal (normalized occupancy) is 0.0808.

GAAGTGTA: the binding signal (normalized occupancy) stood at 0.0751. Regarding AGGATCGA, the binding signal (normalized occupancy) was determined as 0.0757. In the case of TCATTCGA, the binding signal (normalized occupancy) was determined as 0.0781.

CCGCATTC: the binding signal (normalized occupancy) is 0.072. In the case of ATAAGCAT, the binding signal (normalized occupancy) came out at 0.0819. As to AACAGGCT, the binding signal (normalized occupancy) came out at 0.0748.

As to AGTGATCG, the binding signal (normalized occupancy) was determined as 0.0765. With ATTGTGCG the figure was 0.0787; with AGAGTATG, 0.0745.

As to TAGCTAGA, the binding signal (normalized occupancy) is 0.0689.

Consider ACGGCTAC, for which the binding signal (normalized occupancy) stood at 0.0676. Take CTCTATGA: the binding signal (normalized occupancy) turned out to be 0.0732.

CGGGCTAG: the binding signal (normalized occupancy) turned out to be 0.0706.

With GCTAAGCA, the binding signal (normalized occupancy) was found to be 0.07. Turning to TGAGGCCA, the binding signal (normalized occupancy) amounted to 0.0736.

CCGTATAG: the binding signal (normalized occupancy) amounted to 0.0757. As for TCACTTCA, the binding signal (normalized occupancy) is 0.0761. For the sequence GTGAGGGA, the binding signal (normalized occupancy) was determined as 0.0752.

As to ATGAGGTA, the binding signal (normalized occupancy) is 0.0789. For the sequence AGCATGGA, the binding signal (normalized occupancy) came out at 0.1. Take GCGGCAAA: the binding signal (normalized occupancy) worked out at 0.0701. With AAAACCGA the figure was 0.0688; with GTGTCTAA, 0.0779. On to AGAGCCTC, for which the binding signal (normalized occupancy) is 0.0723. Turning to CATATAGG, the binding signal (normalized occupancy) was 0.0875. With AAACATGG the figure was 0.0874; with CTCGCCCC, 0.0701; with CAACCATA, 0.0837.

Regarding CGTCCTGA, the binding signal (normalized occupancy) came out at 0.069. With CTATCTAC, the binding signal (normalized occupancy) amounted to 0.0757.

ATGTTAAT: the binding signal (normalized occupancy) is 0.0787. Regarding CCCGAGGA, the binding signal (normalized occupancy) was 0.0728. The value for ATCAACAC was 0.0825; that for ATTGTTAC was 0.0769. Consider CGCGATCC, for which the binding signal (normalized occupancy) was found to be 0.0768.

Take CTTGGCTC: the binding signal (normalized occupancy) stood at 0.0739. With GCCATCTA the figure was 0.0757; with TACTACCA, 0.0762.

As for AAATCCCA, the binding signal (normalized occupancy) stood at 0.0748.

For the sequence ACGCGGCT, the binding signal (normalized occupancy) came out at 0.081.

With GAGATTCC, the binding signal (normalized occupancy) is 0.0754. With ACCCATTG the figure was 0.0802; with CAGGGGCA, 0.0738; with GCCTGGCC, 0.0671. With TATATGGA the figure was 0.0939; with AATTAAAG, 0.0785; with ATCGGTCA, 0.0748. As to GGCCCAAC, the binding signal (normalized occupancy) is 0.072. With ACGATAGA the figure was 0.0814; with GCGGGAGC, 0.066. Consider ATGGCCAA, for which the binding signal (normalized occupancy) was determined as 0.0741.

As for CCCTACAG, the binding signal (normalized occupancy) worked out at 0.075. On to ATGTCGCC, for which the binding signal (normalized occupancy) was 0.0839. Turning to GACGGTGA, the binding signal (normalized occupancy) is 0.0751.

Take AATATTAC: the binding signal (normalized occupancy) came to 0.0808. With ATGCGCCA, the binding signal (normalized occupancy) was found to be 0.0906.

Take GGAGGAGA: the binding signal (normalized occupancy) came out at 0.0745. Consider GCCGCTTA, for which the binding signal (normalized occupancy) came out at 0.0707. The value for AATCCTTA was 0.0733.

Turning to CAAACTGA, the binding signal (normalized occupancy) was 0.0723. Regarding TACCTTAA, the binding signal (normalized occupancy) turned out to be 0.072. With CGCAAGGA, the binding signal (normalized occupancy) was found to be 0.0798. CGGCACAC: the binding signal (normalized occupancy) came out at 0.0795. With ACCTGAGC the figure was 0.0767; with TCTGCAGA, 0.0722.

For GAAAGGAC, the binding signal (normalized occupancy) was 0.0662. On to CCTAAGGC, for which the binding signal (normalized occupancy) worked out at 0.0706.

Consider GAATACTA, for which the binding signal (normalized occupancy) was 0.0855. The value for AAACGTAT was 0.0746; that for AAGAGGCG was 0.07; that for CATTTCGA was 0.0759. The value for CTCCGAAC was 0.0676. With CGCAAATA the figure was 0.0708. Take ACCATCAC: the binding signal (normalized occupancy) stood at 0.0836. With GCACTGAA, the binding signal (normalized occupancy) was determined as 0.0723.

Take CGGATAGC: the binding signal (normalized occupancy) was 0.0762. For CCGTATTC, the binding signal (normalized occupancy) came to 0.0748. With AAAAGCAT, the binding signal (normalized occupancy) is 0.0791. With CATGACGG, the binding signal (normalized occupancy) is 0.0797.

In the case of CCCAGGAC, the binding signal (normalized occupancy) was 0.0694. With ACTTGGTA, the binding signal (normalized occupancy) was determined as 0.0735. In the case of CTGGACTA, the binding signal (normalized occupancy) was 0.072. Consider CAGCTGCC, for which the binding signal (normalized occupancy) was found to be 0.0686.

For the sequence GGGCATAC, the binding signal (normalized occupancy) is 0.0778. With AGACTAGA, the binding signal (normalized occupancy) turned out to be 0.075.

Consider CCTACAAG, for which the binding signal (normalized occupancy) was 0.0711. Turning to CTGTGATA, the binding signal (normalized occupancy) is 0.0741.

Turning to GTCCTCGA, the binding signal (normalized occupancy) came to 0.0717. Turning to GTCATGAA, the binding signal (normalized occupancy) is 0.0778. As for AACTCCAT, the binding signal (normalized occupancy) was found to be 0.0767. The value for ATCTTTAG was 0.0754; that for ATACAAAC was 0.0743; that for GCGCCTAC was 0.0735.

On to ATAAATAG, for which the binding signal (normalized occupancy) was 0.0754. Turning to CAGGAGAA, the binding signal (normalized occupancy) amounted to 0.0737. Turning to AATAGCAG, the binding signal (normalized occupancy) came to 0.0748.

Turning to CAATGAGA, the binding signal (normalized occupancy) came to 0.079. Consider ACCTGGAT, for which the binding signal (normalized occupancy) stood at 0.0753. Consider TTGACAAA, for which the binding signal (normalized occupancy) came out at 0.0738. As to TATGACAA, the binding signal (normalized occupancy) came to 0.0803.

Consider CAGCTCTC, for which the binding signal (normalized occupancy) was 0.0656. The value for AGACGATC was 0.0732. Take GAAGCCAA: the binding signal (normalized occupancy) was 0.0689. The value for AAAGTAAG was 0.0712; that for GACACCGA was 0.0769. Turning to CCTACCAC, the binding signal (normalized occupancy) turned out to be 0.0813. GAAAGAGA: the binding signal (normalized occupancy) amounted to 0.0724.

CGGGTAAG: the binding signal (normalized occupancy) was 0.0738. As to CCGAGGAC, the binding signal (normalized occupancy) was 0.0697. Consider AACAACCC, for which the binding signal (normalized occupancy) is 0.0789. As to AACTGGAC, the binding signal (normalized occupancy) worked out at 0.0692. The value for ATACTTGG was 0.0799; that for GACAATGA was 0.0791; that for CTACCTAG was 0.0747. In the case of GCTTCCCC, the binding signal (normalized occupancy) was determined as 0.0787. Consider AATAGGGC, for which the binding signal (normalized occupancy) was 0.0746. The value for AGCCGGAC was 0.0649. With CCAGGGCG, the binding signal (normalized occupancy) was determined as 0.0667.

With GTCAAAAA, the binding signal (normalized occupancy) was found to be 0.0705. For CCTAGCTA, the binding signal (normalized occupancy) amounted to 0.0749. Consider AGCCTAAT, for which the binding signal (normalized occupancy) was 0.0727. In the case of AACGATAC, the binding signal (normalized occupancy) amounted to 0.0816. The value for AAGTCTTA was 0.0766; that for CACTGACC was 0.0728; that for AGTGCTGC was 0.072.

AGAGGTAG: the binding signal (normalized occupancy) came out at 0.0697.

For AACTCCAC, the binding signal (normalized occupancy) amounted to 0.0767.
